Among the data in article PMC10668032 are binding signal values, retold here.

This is one part of the list. At the low end of the ranking the order means little.

The assay has as its target SIX1 homeodomain (reference allele) (UniProt Q15475). As to the kind of experiment: universal protein binding microarray. The conditions noted are these: Universal all-10-mer PBM (8x60K, AMADID 030236), 300 nM GST-tagged protein, Alexa Fluor 488 anti-GST; buffer, salt, pH and temperature not stated; high values mean tight binding; most listed sequences are background and not binding sites; double strand, one strand shown.
In the case of CGGGGAAA, the binding signal is -0.165 E-score.

Consider ATGAAAGG, for which the binding signal came out at 0.0414 E-score.

As for CTAGTGCA, the binding signal was 0.0234 E-score.

AGTGAATA: the binding signal is -0.142 E-score.

For the sequence CCAGAGCA, the binding signal is -0.0837 E-score.

Turning to ATTAGAAC, the binding signal turned out to be 0.0959 E-score.

On to ATCCCACG, for which the binding signal was found to be 0.192 E-score.

CAATAGTA: the binding signal is -0.0501 E-score.

For CACATGGA, the binding signal came out at 0.0308 E-score.

Regarding AATAGAGA, the binding signal is -0.087 E-score.

As for AATCATAC, the binding signal came out at 0.00459 E-score.

In the case of ACGCTGCG, the binding signal was -0.233 E-score.

On to CCCTACCC, for which the binding signal was determined as 0.0846 E-score.

On to GAGAACTC, for which the binding signal was -0.00538 E-score.

TCCTCACA: the binding signal was 0.0516 E-score.

For the sequence CGCGTGTC, the binding signal amounted to 0.0551 E-score.

Take AAATACAC: the binding signal turned out to be 0.113 E-score.

As for CGATGAAG, the binding signal is -0.0522 E-score.

Consider CATGAGAC, for which the binding signal is 0.296 E-score.

As for CCAACCCC, the binding signal is -0.0124 E-score.

Turning to AATCAATA, the binding signal worked out at 0.144 E-score.

For AGTTACTA, the binding signal was -0.0995 E-score.

Consider ACCCACAG, for which the binding signal is 0.13 E-score.

On to GACCGTGC, for which the binding signal is -0.25 E-score.

GTACTGAC: the binding signal was -0.0122 E-score.

As for CCAATGAC, the binding signal was 0.0246 E-score.

As to AAGACACC, the binding signal came out at 0.347 E-score.

As to AGGCTGAT, the binding signal amounted to 0.172 E-score.

For AGTGGGAT, the binding signal was found to be 0.333 E-score.

Turning to GGAAAATA, the binding signal is 0.0296 E-score.

Regarding CCAATCAC, the binding signal was -0.153 E-score.

Consider GAATACTC, for which the binding signal stood at 0.155 E-score.

AGAGAGAC: the binding signal is -0.101 E-score.

Turning to AAAGGCTA, the binding signal is -0.105 E-score.

On to GACACCCC, for which the binding signal was 0.436 E-score.

Turning to ACCTTTGA, the binding signal turned out to be 0.0161 E-score.

In the case of AGCACAAA, the binding signal was -0.173 E-score.

For the sequence AGCAGGTG, the binding signal stood at 0.143 E-score.

As for AGATTTTC, the binding signal was -0.193 E-score.

For GCGGTGGA, the binding signal amounted to 0.0422 E-score.

Take ACTTGGAC: the binding signal is -0.0325 E-score.

Regarding ACAATCCT, the binding signal was determined as 0.0664 E-score.

With CCCATTGA, the binding signal is 0.0209 E-score.

ATGCCGTG: the binding signal is -0.152 E-score.

As for AGGACCTG, the binding signal was -0.27 E-score.

On to AGAATCCC, for which the binding signal was determined as 0.175 E-score.

Regarding GGGCGTGA, the binding signal amounted to 0.105 E-score.

For ATCGCACC, the binding signal came to 0.207 E-score.

Consider AACAGTAC, for which the binding signal was -0.108 E-score.

CCTTGAAA: the binding signal was -0.214 E-score.

Turning to ACGTGTCA, the binding signal came out at 0.167 E-score.

For the sequence ATCCTTGG, the binding signal is 0.189 E-score.

For CGGAGACC, the binding signal was 0.0432 E-score.

As to ATGTAGCC, the binding signal is -0.0461 E-score.

Turning to ACCACGCC, the binding signal was -0.0819 E-score.

In the case of AGTATCGA, the binding signal was 0.418 E-score.

Take GGCTTCGA: the binding signal is 0.0639 E-score.

In the case of AGCTCTGC, the binding signal is -0.318 E-score.

On to AGACTTCA, for which the binding signal is -0.257 E-score.

In the case of CCAGTTAA, the binding signal is -0.0573 E-score.

As for AGTTGTGG, the binding signal was -0.155 E-score.

On to AACCCCAA, for which the binding signal was -0.0205 E-score.

For the sequence AATCCTGC, the binding signal turned out to be 0.00817 E-score.

Consider GAGCGCAC, for which the binding signal is -0.0644 E-score.

As for AACCCGAT, the binding signal is 0.25 E-score.

With CCAAGGGG, the binding signal was found to be 0.0934 E-score.

As to GCAGAGGC, the binding signal was -0.24 E-score.

As to GCGAGAGC, the binding signal was -0.263 E-score.

Consider CGGCCCCG, for which the binding signal was -0.197 E-score.

As to CTTGCTTA, the binding signal is -0.202 E-score.

For CGAGAGCA, the binding signal came out at 0.0203 E-score.

On to GTCAATTA, for which the binding signal was -0.019 E-score.

Regarding GACAGCGC, the binding signal was -0.267 E-score.

As for ACTCCTTC, the binding signal is -0.109 E-score.

On to GAACCTGA, for which the binding signal is -0.0542 E-score.

For the sequence ATAAGTCC, the binding signal is -0.137 E-score.

CCCGTCCG: the binding signal is -0.0107 E-score.

In the case of CTGGTTGA, the binding signal was -0.0885 E-score.

In the case of ACGTATCT, the binding signal was 0.339 E-score.

AAGATGTC: the binding signal is -0.251 E-score.

For GGTGTTTA, the binding signal was 0.203 E-score.

On to AAATAAGT, for which the binding signal was -0.152 E-score.

ACAAATCG: the binding signal was -0.205 E-score.

Consider ATGCTGAC, for which the binding signal is -0.0277 E-score.

ATGTCGCG: the binding signal is -0.00428 E-score.

Regarding CGGGAATA, the binding signal turned out to be 0.189 E-score.

With AGGTAAAG, the binding signal came out at 0.0336 E-score.

TAGTCGGA: the binding signal was -0.0173 E-score.

CAACAAGG: the binding signal is -0.111 E-score.

Take TGCATTAA: the binding signal is -0.0197 E-score.

On to CGGGACCG, for which the binding signal is -0.23 E-score.

For the sequence AACTCGAT, the binding signal amounted to 0.138 E-score.

ACCCTGCC: the binding signal is -0.088 E-score.

Regarding AAAAATTT, the binding signal was -0.217 E-score.

On to ATCCAAGC, for which the binding signal turned out to be 0.169 E-score.

On to TATCTCAA, for which the binding signal amounted to 0.329 E-score.

Take AATAATAC: the binding signal came out at 0.345 E-score.

Consider ACGACTCC, for which the binding signal is -0.13 E-score.

For the sequence GATTGCAC, the binding signal was -0.0162 E-score.

For AACGAAGC, the binding signal is -0.298 E-score.

As to GTCACGAC, the binding signal was -0.116 E-score.

Consider CGAATCTC, for which the binding signal was -0.0912 E-score.

GTAACGAA: the binding signal is -0.114 E-score.

As to AGCCGGGA, the binding signal was -0.00437 E-score.

As for ACCATGGC, the binding signal came to 0.0455 E-score.

As for CAAACACG, the binding signal is -0.103 E-score.

As to CCCAGTTC, the binding signal was -0.0301 E-score.

As to CTCGGTGC, the binding signal is -0.136 E-score.

On to AGATGTTG, for which the binding signal was 0.0187 E-score.

For the sequence CGAAGAAC, the binding signal was -0.258 E-score.

ACATCGCA: the binding signal was found to be 0.152 E-score.

For ACACACCA, the binding signal was found to be 0.124 E-score.

Take CGTACCAG: the binding signal was -0.0214 E-score.

Take CAACACGC: the binding signal is -0.0761 E-score.

For AGTTCTAG, the binding signal was -0.176 E-score.

In the case of TTCATCAA, the binding signal was -0.223 E-score.

With AGGGGCGA, the binding signal was -0.15 E-score.

GTATCAAC: the binding signal was found to be 0.475 E-score.

Consider ACTCCCAG, for which the binding signal is -0.00561 E-score.

Turning to AATTCCTC, the binding signal is -0.113 E-score.

Regarding ACTGCGAT, the binding signal is 0.233 E-score.

With CCGTAGGA, the binding signal is -0.0605 E-score.

In the case of ACCGTCAG, the binding signal was 0.000515 E-score.

Regarding TTCCTAAA, the binding signal is -0.136 E-score.

As for CCAATCGG, the binding signal was -0.0725 E-score.

AGGTCTGG: the binding signal is -0.21 E-score.

For TAGAGCTA, the binding signal is -0.0278 E-score.

For AACCTTTA, the binding signal is -0.245 E-score.

AGCCGTGC: the binding signal is -0.204 E-score.

As for GATATTCA, the binding signal came to 0.232 E-score.

ACTCGAAC: the binding signal is -0.0186 E-score.

Turning to ACTGGCTG, the binding signal was -0.0858 E-score.

For the sequence CCAGCGGG, the binding signal turned out to be 0.0974 E-score.

Consider GAGCACTA, for which the binding signal is -0.085 E-score.

Regarding ACGCCATC, the binding signal was -0.0794 E-score.

For the sequence AGTCGCTC, the binding signal was -0.308 E-score.

As for CCCTTCCC, the binding signal was determined as 0.2 E-score.

Regarding ATTTACAG, the binding signal was -0.246 E-score.

Regarding ACGTCAAT, the binding signal was -0.0725 E-score.

Regarding ACTCCGAT, the binding signal is 0.206 E-score.

CTACGCAC: the binding signal is -0.0382 E-score.

Take AGTCGGGC: the binding signal was -0.0188 E-score.

GCCACAGC: the binding signal was -0.0571 E-score.

As to CGATCGAG, the binding signal is 0.21 E-score.

For ATGTCGCA, the binding signal is -0.0847 E-score.

CAAGAGAA: the binding signal was -0.119 E-score.

For the sequence AAGCCACT, the binding signal was -0.204 E-score.

For AAAATGGT, the binding signal is 0.0437 E-score.

ACATAGGC: the binding signal came out at 0.00408 E-score.

With CCATAGGA, the binding signal amounted to 0.00464 E-score.

With CCCCCCTC, the binding signal is -0.0205 E-score.

Turning to AATTGTTG, the binding signal is -0.308 E-score.

For GAGGCCGC, the binding signal was -0.184 E-score.

Regarding GTGTTCCA, the binding signal is 0.0718 E-score.

Consider AGCCTGTG, for which the binding signal was found to be 0.0426 E-score.

With GTACTCGA, the binding signal came to 0.213 E-score.

Turning to GCAGCCGA, the binding signal was -0.0389 E-score.

In the case of ATTTCGGC, the binding signal came out at 0.0303 E-score.

With GGGAGCAC, the binding signal was 0.00475 E-score.

On to ACCAGACC, for which the binding signal came out at 0.0699 E-score.

Regarding CCTTTTTA, the binding signal was -0.0661 E-score.

For the sequence CTGCCTAA, the binding signal was -0.143 E-score.

Regarding ATGCTCTG, the binding signal is -0.157 E-score.

Regarding CTTTATAC, the binding signal turned out to be 0.0599 E-score.

Take CTGTACGC: the binding signal was -0.128 E-score.

Turning to ACGTTACC, the binding signal is -0.152 E-score.

As to ATACCTTG, the binding signal stood at 0.335 E-score.

As for CAGCGATC, the binding signal was 0.265 E-score.

In the case of AATTGGGG, the binding signal amounted to 0.0748 E-score.

Take CGCACAAA: the binding signal is -0.195 E-score.

For the sequence CAAACGTG, the binding signal was -0.237 E-score.

CCTTCAAA: the binding signal is -0.159 E-score.
